These results are taken from paper PMC10726135.

Some of the results follow. At the low end of the ranking, values are background and their order means little. The protein was read in a cell extract, so binding may be indirect.

The target in this test is T1, HNF4alpha2 (COS-7 nuclear extract) (UniProt P41235).
T1 sequence: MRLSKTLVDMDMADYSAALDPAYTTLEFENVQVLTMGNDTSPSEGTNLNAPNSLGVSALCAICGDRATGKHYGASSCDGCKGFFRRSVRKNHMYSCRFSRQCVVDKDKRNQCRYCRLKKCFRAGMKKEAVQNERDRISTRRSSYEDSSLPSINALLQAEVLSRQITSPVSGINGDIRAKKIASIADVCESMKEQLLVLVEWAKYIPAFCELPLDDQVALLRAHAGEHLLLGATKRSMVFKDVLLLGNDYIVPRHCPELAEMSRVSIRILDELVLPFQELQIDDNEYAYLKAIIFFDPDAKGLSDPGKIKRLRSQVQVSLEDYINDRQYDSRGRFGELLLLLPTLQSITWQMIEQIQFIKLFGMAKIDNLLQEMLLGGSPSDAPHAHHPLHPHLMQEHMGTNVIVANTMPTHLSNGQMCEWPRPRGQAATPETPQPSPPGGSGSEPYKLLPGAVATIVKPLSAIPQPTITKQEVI
As to the kind of experiment: protein-binding microarray. To be noted: COS-7 nuclear extract on double-stranded Agilent 4x180k PBM; binding buffer, salt, pH and temperature not given; high values mean tight binding; double strand, one strand shown; sequences stand for … in …GCCTAGGGAGATTAGAGTATCGGTCGA
On to AATGGGAGGAACTCCAGAACCAAAGTCCTA, for which the binding signal (log2 normalized intensity) was -1.19.
With AGGCCGCGCCCGCCCGCGCCGGCCTCGGTC, the binding signal (log2 normalized intensity) is -1.05.
On to CTGGAAGCTCTTCTGTGCCTCCCAAATGCA, for which the binding signal (log2 normalized intensity) came out at 1.45.
Consider AAGATAAGGACTGTTGGACCTCGAACTCCA, for which the binding signal (log2 normalized intensity) worked out at 4.06.
For the sequence TAAGATACGAAGGGTTTAAAGGGCAGAAGA, the binding signal (log2 normalized intensity) came to 1.91.
Then GGCCTAGACACAGACTCAAGTGAGGAAGGA, with -1.05; and AGACATAACTCAAACATCTGACAGAGATAA, with -1.11; and ATGTTTCCTCTCCCAGCCCCTAGCCCTAAG, with 3.54.
Then CGCTGCTGCAGAGCAAAGCTGATAAAGAGG, with -1.07; and CCTCAAGAGACAACCAAGGTTGCAGAGTGT, with -0.98; and TCACACAAATGGATCTTTCTTCAAAAAGAG, with 0.257.
On to TTAATCACAGGATTTAAAGAATTCCAGACA, for which the binding signal (log2 normalized intensity) was -1.09.
As to AGTCTTGGCCCCACCGGTCACGACCCCGCT, the binding signal (log2 normalized intensity) is 3.62.
For the sequence CAAGATTAGTGGGAAAGCTATTGCTCTGCA, the binding signal (log2 normalized intensity) is -1.14.
For AAACCAAATCACAATTTTCAAGAACAAACA, the binding signal (log2 normalized intensity) is -0.824.
CAAAGGGTCAAGTTCAGATCCTGGCCATGC: the binding signal (log2 normalized intensity) amounted to 0.748.
Turning to GCCTGTCACCCAACCTCACCTAACCACATT, the binding signal (log2 normalized intensity) is 1.67.
Take TAAGGAAGATAATGGGTCCGAAGGTCAGCT: the binding signal (log2 normalized intensity) worked out at 6.35.
For ACTTTGACCTTGGCACTGAAGAATGTCTAA the value was 1.8; for CCTGGGAGTAACCTGCTTGTTTTCCCAACA, -0.54.
With GTTAAACAGCAACTCAGGCAACAATGCCTT, the binding signal (log2 normalized intensity) is -1.14.
With AATTTTTTTTTCTTATCTCACTGGATGTGT, the binding signal (log2 normalized intensity) stood at 2.22.
As for CTGGGGCAAAGGTTTCCTAAACAGTTACCG, the binding signal (log2 normalized intensity) amounted to 0.188.
For TGACCTTGGGCCAGTCGCTTAACCTCTTGA, the binding signal (log2 normalized intensity) is 1.36.
For GCCGACTTACAGGACAAAAGTAAATATGGT, the binding signal (log2 normalized intensity) was found to be 0.187.
Turning to ATTTTGTCACCTACATGTGAGAGAGGCTTA, the binding signal (log2 normalized intensity) is -0.433.
With CCCAGTATGGTCTCAGTAATGACATGCAGT, the binding signal (log2 normalized intensity) is 0.951.
As for ATGGCTTATGCATGTTTATGTGAATTCCTG, the binding signal (log2 normalized intensity) worked out at 1.35.
For the sequence AATTACCCAACAGACTTTCCCCCTATTTCC, the binding signal (log2 normalized intensity) was 3.25.
As for CTCTAATCTGGGACAAGGGGGAGGAGAGTA, the binding signal (log2 normalized intensity) was -0.975.
As to GCAGTGGTTTGCAGTTGGAAAGCTGAGTTT, the binding signal (log2 normalized intensity) was found to be 1.06.
Take GCTTTTCTTTCTCAAGCCAGACTGGTTTTT: the binding signal (log2 normalized intensity) amounted to 1.2.
As to TCCTCTTCCCTACCCCCTGGGAGTAACCTG, the binding signal (log2 normalized intensity) is 2.81.
For the sequence GCACTTTGCACCCTATGTGTTTCTTCTGCT, the binding signal (log2 normalized intensity) came to 4.08.
On to TGAGCCATCCTGAACAAATGTACTGGATAT, for which the binding signal (log2 normalized intensity) was -0.976.
On to GTGTGGGGCAAATCTGAGGTCAAAGCTGTC, for which the binding signal (log2 normalized intensity) was 1.41.
Regarding AGCCACTTTCTTTGTCTGTGTAGACTCATC, the binding signal (log2 normalized intensity) is 1.07.
Then ACAGAGCCTGGTGTTTACTGGAGCCGAGTC, with -0.283; and GGGAGCCCTGGGGTAATAAATAAAGCCCTG, with -1.19; and GCACAGATCATATGGCCCACAAAGCCTAAA, with -1.17.
With GACTTTTCCAAGCTCTAGAACGCTGACTCC, the binding signal (log2 normalized intensity) was -1.09.
Then GGGTTGGAGTCCAGAGTTCAGGTAGAGGGA, with 1.85; and ACACAGTACTTTGTACATGGGAATAGACAT, with 0.863; and ACTTCTCCTCTTATCTTCAGGTTTGCTAAT, with 1.75.
In the case of CGAGCGTCCAAGCTCTTTCCATTTTTGCTC, the binding signal (log2 normalized intensity) was -0.991.
Then CAAAATAGACAAACAGCAATAGCAAGACTG, with -1.09; and ATGGAGGTAGGAGTATTTGGGTATGTGCCT, with 1.52.
Then TTTCAAAGCTCCAGTTCCAGGGATGTCTTT, with 0.742; and GGGTCAGTTTATCTAAGATTCCCCCTACCC, with 3.85.
For TGGACTCTGGGATCTCAGGGTGGACTTTAA, the binding signal (log2 normalized intensity) was 5.81.
For GTAAAATGAGCAAACAGAACTGTTAACTTT the value was -1.03; for TTTTGATGGTGGAGGGTCTTGCTTTGATGT, 1.46.
Then GGTACCATCTGCCACTCATAGAACTGTCGC, with -0.684; and AAAATGGGTACAGACAATAGGAAGAGTGAG, with -0.66.
Turning to AACCCAGTGCAATGCCTAAACCAGGATCCA, the binding signal (log2 normalized intensity) is -1.16.
With TTAGTTTCCTTATCTGTAAAATGGACATAG, the binding signal (log2 normalized intensity) was determined as 0.981.
For CTCTTGAATTGGAAGGCAAAGTTCAACCCT the value was 3.2; for AAGGTTTCCATCAAGCCTTTGACTCGAATG, -0.997; for AAAAGATAAGGCGTAGTTCAGAGAAAACGA, -1.15.
With AGTTTGCCACGGTCAGCAATGTGGACTTTG, the binding signal (log2 normalized intensity) worked out at 6.18.
As to ATCACACAGACAGACATTCAGAAACTGTCA, the binding signal (log2 normalized intensity) is -1.1.
ACGCACAGAGGCCCCTGATGTGATGTAATC: the binding signal (log2 normalized intensity) worked out at 0.474.
Then CTTATTTGCATGAAGCACAAAGGTTACTTG, with 2.82; and CTGTACACTTACAAGTGTACAAAGGTCACT, with 7.61.
For GACAAATCTGTGTTGGAGTTCTAAGAGCCT, the binding signal (log2 normalized intensity) was -1.08.
Consider AGAAGTGAAAAGTCGTTTTCAGTGTTTCTT, for which the binding signal (log2 normalized intensity) amounted to 1.19.
Regarding TCTTTGCACTTGATGTTCCCCCTCCCTGGA, the binding signal (log2 normalized intensity) amounted to 4.59.
For the sequence ACTTTGGTCTTATTACTAAGTGAGAAAAGA, the binding signal (log2 normalized intensity) came out at 1.19.
AATGGCTCCACCAGTCAGTCAGTGAGACGT: the binding signal (log2 normalized intensity) was -0.839.
As to CCTTTTTGGAATGTGTTTGCATGACTCATA, the binding signal (log2 normalized intensity) came out at 1.77.
With CCCCTCCCTCCGCAACCTTTACTCCTTGTG, the binding signal (log2 normalized intensity) worked out at 3.68.
As to ATGAAGTCAAACAAAAGAAAATGTGCCCTT, the binding signal (log2 normalized intensity) worked out at 2.45.
